Whole data set: some 81,000 sequences, median “one-hybrid fitness for binding parS DNA” near -0.17, cut for the highest 2% near 0.51. The list shows a part of the results.
B1: Caulobacter ParB omega fusion; a variant is named by its letters at X, in order, B8GW30 (parent)
chain: MESVVVGEPGMSEGRRGLGRGLSALLGEVDAAPAQAPGEQLGGSREAPIEILQRNPDQPRRTFREEDLEDLSNSIREKGVLQPILVRPSPDTAGEYQIVAGERAWRAAQRAGLKTVPIMVRELDDLAVLEIGIIENVQRADLNVLEEALSYKVLMEKFERTQENIAQTIGKSXSHVANXMRLLXLPDEVQSYLVSGELTAXHARAIAAAADPVALAKQIIEGGLSVRETEALARKAPNLSAGKSKGGRPPRVKDTDTQALESDLSSVLGLDVSIDHRGSTGTLTITYATLEQLDDLCNRLTRGI

Variants of: B1
Test: one-hybrid fitness for binding parS DNA (scaled: cognate 1, non-cognate 0); higher = stronger binding
Conditions: with parS DNA site
Method in brief: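 Caulobacter ParB libraries with four specificity codons randomised were screened by bacterial one-hybrid selection in the E. coli USO strain, using a HIS3 reporter whose site lies 19 bp from the promoter. Selection ran for 48 hours at 37°C on M9 lacking histidine, with 0.1 mM IPTG and 5 mM 3-AT. Plasmids were Illumina-sequenced before and after selection, three replicate libraries were pooled, and variants with under 10 reads were dropped. Fitness is the log change in each variant's read ratio to wild type, rescaled against the cognate and non-cognate sites.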

Variant	one-hybrid fitness for binding parS DNA
HFTW	≤ 0.2
NYHP	≤ 0.2
VDLR	≤ 0.2
YWWL	≤ 0.2
HCQF	≤ 0.2
ATVV	≤ 0.2
PINR	≤ 0.2
ERSD	≤ 0.2
ICSA	≤ 0.2
GSII	≤ 0.2
YWFR	≤ 0.2
PSTE	≤ 0.2
GLVE	≤ 0.2
GLAA	≤ 0.2
DLHC	≤ 0.2
NDRN	≤ 0.2
NVKR	≤ 0.2
IGKS	≤ 0.2
LHHL	≤ 0.2
VPHR	≤ 0.2
RNYL	≤ 0.2
DTRF	≤ 0.2
CYHF	≤ 0.2
EGML	≤ 0.2
SNLL	≤ 0.2
MAPS	≤ 0.2

Variant	one-hybrid fitness for binding parS DNA
WIGR	≤ 0.2
EPTY	≤ 0.2
GNRL	≤ 0.2
SWIG	≤ 0.2
INIE	≤ 0.2
KTYT	≤ 0.2
DQAS	≤ 0.2
LNFG	≤ 0.2
TEAR	≤ 0.2
KKTF	≤ 0.2
MHGG	≤ 0.2
PPKL	≤ 0.2
SRKN	≤ 0.2
TSLW	≤ 0.2
EWDK	≤ 0.2
MSQT	≤ 0.2
LILR	≤ 0.2
GTNP	≤ 0.2
VLHG	≤ 0.2
VCYG	≤ 0.2
TNVS	≤ 0.2
TGWR	≤ 0.2
ESDL	≤ 0.2
GDYY	≤ 0.2
PMYR	≤ 0.2
RTQN	0.442

Variant	one-hybrid fitness for binding parS DNA
EFAV	≤ 0.2
VYLC	≤ 0.2
RLLA	0.605
TNQW	≤ 0.2
HSYC	≤ 0.2
RRAY	0.396
YVAV	≤ 0.2
LTAT	≤ 0.2
ITVF	≤ 0.2
TYNW	≤ 0.2
PEIC	≤ 0.2
LWIS	≤ 0.2
QHPY	≤ 0.2
RPYN	≤ 0.2
YMYF	≤ 0.2
TDES	≤ 0.2
VTPW	≤ 0.2
HTLG	≤ 0.2
GAQS	≤ 0.2
HHGC	≤ 0.2
RDNA	≤ 0.2
VQPL	≤ 0.2
TGLA	≤ 0.2
YIGR	≤ 0.2
KYTG	≤ 0.2
FKLS	≤ 0.2

Variant	one-hybrid fitness for binding parS DNA
PQQV	≤ 0.2
RVHV	≤ 0.2
WFVF	≤ 0.2
VLIT	≤ 0.2
TGKT	≤ 0.2
DLRT	≤ 0.2
TQEI	≤ 0.2
VEDF	≤ 0.2
VLSP	≤ 0.2
DVFT	≤ 0.2
LFPT	≤ 0.2
EQGR	≤ 0.2
RKVQ	≤ 0.2
LSTP	≤ 0.2
RGNP	≤ 0.2
RKWD	≤ 0.2
GLSP	≤ 0.2
VLYC	≤ 0.2
CNFR	≤ 0.2
QCRY	≤ 0.2
NQTT	≤ 0.2
DYWL	≤ 0.2
IYKS	≤ 0.2
CSTG	≤ 0.2
VSLV	≤ 0.2
NSIV	≤ 0.2

Variant	one-hybrid fitness for binding parS DNA
AQHT	≤ 0.2
TCQD	≤ 0.2
VRQR	≤ 0.2
QLPY	≤ 0.2
SYAG	≤ 0.2
YRHR	≤ 0.2
HQRR	≤ 0.2
FSNC	≤ 0.2
ASDC	≤ 0.2
KRRA	≤ 0.2
WAPA	≤ 0.2
EYYT	≤ 0.2
RDVL	≤ 0.2
IRPW	≤ 0.2
IRTW	≤ 0.2
HGPR	≤ 0.2
LPLV	≤ 0.2
STFQ	≤ 0.2
RFYP	≤ 0.2
DSLS	≤ 0.2
SDCT	≤ 0.2
RGVQ	≤ 0.2
NKPQ	≤ 0.2
WSTN	≤ 0.2
QPFC	≤ 0.2
RATS	1

Variant	one-hybrid fitness for binding parS DNA
NRGS	≤ 0.2
KSCS	≤ 0.2
KAYS	≤ 0.2
VDVY	≤ 0.2
GDYN	≤ 0.2
LKTI	≤ 0.2
CRSS	≤ 0.2
FSLG	≤ 0.2
RHPV	≤ 0.2
NDSC	≤ 0.2
TIQD	≤ 0.2
NNEG	≤ 0.2
NISG	≤ 0.2
CKWS	≤ 0.2
LEQP	≤ 0.2
PAGV	≤ 0.2
YYPK	≤ 0.2
RFFR	≤ 0.2
FITR	≤ 0.2
HRHV	≤ 0.2
CLSL	≤ 0.2
GILF	≤ 0.2
FMMS	≤ 0.2

— a collection of fitness landscapes (doi:10.1016/j.celrep.2020.107928)
